From the supplement of paper PMC4967469

Key:
Assay in all cases: Viability of human cancer cell lines after 72 h of drug (GDSC screen)
[1] = compound: CC(C)c1ccccc1Cc1cc(C(=O)Nc2ccc(S(=O)(=O)c3ccccc3C(C)(C)C)cc2)c(O)c(O)c1O [TW-37]; settings: top dose 5 µM
Method: (§1)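 Human cancer cell lines in 384-well plates, medium with 10% serum, drug for 72 h over a 256-fold dose range (nine 2-fold or five 4-fold steps up to the top dose). Adherent lines were fixed and stained with the nucleic acid dye Syto60, suspension lines read with resazurin; signal relative to control wells, capped at 0 and 100%. One two-parameter sigmoid per drug and line, fitted in a mixed model over all curves with the slope shared within a line.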

[2] = compound: CC(O)(CS(=O)(=O)c1ccc(F)cc1)C(=O)Nc1ccc(C#N)c(C(F)(F)F)c1 [Bicalutamide]; settings: top dose inferred
Method: as §1

[3] = compound: CCNC(=O)c1noc(-c2cc(C(C)C)c(O)cc2O)c1-c1ccc(CN2CCOCC2)cc1 [AUY922]; settings: top dose 0.256 µM; top dose inferred
Method: as §1

[4] = compound: O=S(=O)(c1ccccc1)N(CC(F)(F)F)c1ccc(C(O)(C(F)(F)F)C(F)(F)F)cc1 [T0901317]; settings: top dose 10.24 µM; top dose inferred
Method: as §1

[5] = compound: C/C(O)=C(\C#N)C(=O)Nc1cc(Br)ccc1Br [LFM-A13]; settings: top dose 16 µM; top dose inferred
Method: as §1

[6] = compound: Cc1cn(-c2cc(NC(=O)c3ccc(C)c(Nc4nccc(-c5cccnc5)n4)c3)cc(C(F)(F)F)c2)cn1 [Nilotinib]; settings: top dose 2 µM
Method: as §1

[7] = compound: S=C(NCc1ccc2c(c1)OCO2)N1CCN(c2ncnc3c2oc2ccccc23)CC1 [MP470]; settings: top dose 20 µM; top dose inferred
Method: as §1

[8] = compound: Cc1ccc(Nc2cc(-c3cccc(N4C(=O)c5ccccc5C4=O)c3)ncn2)cc1NS(C)(=O)=O [KIN001-270]; settings: top dose 20 µM; top dose inferred
Method: as §1

[9] = compound: Nc1ccn([C@@H]2O[C@H](CO)[C@@H](O)C2(F)F)c(=O)n1 [Gemcitabine]; settings: top dose 1.024 µM
Method: as §1

[10] = top dose 1.024 µM, screen: GDSC drug entry 150
[11] = top dose 10 µM, screen: GDSC drug entry 1502

Cell Line | AUC [1] | IC50 [1] [nM] | AUC [2, 10] | IC50 [2, 10] [nM] | AUC [2, 11] | IC50 [2, 11] [nM] | AUC [3] | IC50 [3] [nM] | AUC [4] | IC50 [4] [nM] | AUC [5] | IC50 [5] [nM] | AUC [6] | IC50 [6] [nM] | AUC [7] | IC50 [7] [nM] | AUC [8] | IC50 [8] [nM] | AUC [9] | IC50 [9] [nM]
HDQ-P1 (breast, adherent) | 0.546 | 429 | 0.984 | > 1020 | 0.97 | > 10000 | 0.625 | 38 | 0.983 | > 10200 | 0.985 | > 16000 | 0.984 | > 2000 | 0.974 | > 20000 | 0.976 | > 20000 | 0.85 | 1020
NCI-H292 (lung adenocarcinoma, adherent) | 0.539 | 409 | 0.979 | > 1020 | 0.955 | > 10000 | 0.503 | 16.3 | 0.98 | > 10200 | 0.966 | > 16000 | 0.931 | > 2000 | 0.96 | > 20000 | 0.978 | > 20000 | 0.235 | 9.08
C-4-I (cervix, adherent) | 0.314 | 89.8 | 0.986 | > 1020 |  |  | 0.551 | 22.3 | 0.975 | > 10200 | 0.894 | > 16000 | 0.986 | > 2000 | 0.783 | 9210 | 0.964 | > 20000 | 0.448 | 45.7
CHP-212 (neuroblastoma, adherent) | 0.719 | 1230 | 0.988 | > 1020 |  |  | 0.566 | 23.9 | 0.981 | > 10200 | 0.979 | > 16000 | 0.942 | > 2000 | 0.813 | 9770 | 0.983 | > 20000 | 0.152 | 6.07
HCC1143 (breast, adherent) | 0.687 | 1300 | 0.978 | > 1020 | 0.958 | > 10000 | 0.918 | > 256 | 0.98 | > 10200 | 0.931 | > 16000 | 0.98 | > 2000 | 0.963 | > 20000 | 0.95 | > 20000 | 0.935 | > 1020
HCC2998 (large intestine, adherent) | 0.884 | > 5000 | 0.988 | > 1020 |  |  | 0.559 | 23 | 0.988 | > 10200 | 0.881 | > 16000 | 0.987 | > 2000 | 0.972 | > 20000 | 0.987 | > 20000 | 0.163 | 6.21
HCC1569 (breast, adherent) | 0.824 | 4390 | 0.98 | > 1020 | 0.943 | > 10000 | 0.572 | 26.8 | 0.981 | > 10200 | 0.915 | > 16000 | 0.977 | > 2000 | 0.922 | > 20000 | 0.964 | > 20000 | 0.545 | 88.5
SUIT-2 (pancreas, adherent) | 0.74 | 1580 | 0.985 | > 1020 | 0.981 | > 10000 | 0.878 | > 256 | 0.959 | > 10200 | 0.952 | > 16000 | 0.984 | > 2000 | 0.956 | > 20000 | 0.985 | > 20000 | 0.19 | 7.15
NCI-H1048 (small cell lung carcinoma, adherent) | 0.463 | 251 | 0.989 | > 1020 | 0.984 | > 10000 | 0.715 | 60.2 | 0.964 | > 10200 | 0.986 | > 16000 | 0.987 | > 2000 | 0.859 | 14000 | 0.957 | > 20000 | 0.289 | 17.5
JHH-1 (liver, adherent) | 0.381 | 143 | 0.985 | > 1020 | 0.982 | > 10000 | 0.669 | 49.5 | 0.967 | > 10200 | 0.976 | > 16000 | 0.981 | > 2000 | 0.77 | 8280 | 0.985 | > 20000 | 0.494 | 61.6
NB12 (neuroblastoma, adherent) | 0.403 | 155 | 0.978 | > 1020 | 0.944 | > 10000 | 0.743 | 103 | 0.901 | > 10200 | 0.978 | > 16000 | 0.978 | > 2000 | 0.895 | > 20000 | 0.977 | > 20000 | 0.58 | 114
NCI-H2087 (lung adenocarcinoma, semi-adherent) | 0.576 | 511 | 0.969 | > 1020 | 0.962 | > 10000 | 0.58 | 26.9 | 0.975 | > 10200 | 0.965 | > 16000 | 0.983 | > 2000 | 0.923 | > 20000 | 0.975 | > 20000 | 0.167 | 5.61
VAL (B-cell lymphoma, suspension) | 0.464 | 249 | 0.985 | > 1020 |  |  | 0.818 | 145 | 0.925 | > 10200 | 0.929 | > 16000 | 0.946 | > 2000 | 0.586 | 2150 | 0.889 | > 20000 | 0.733 | 296
PANC-02-03 (pancreas, adherent) | 0.681 | 1110 | 0.98 | > 1020 | 0.98 | > 10000 | 0.687 | 59.9 | 0.953 | > 10200 | 0.948 | > 16000 | 0.974 | > 2000 | 0.949 | > 20000 | 0.983 | > 20000 | 0.746 | 

A lower IC50 marks a more sensitive line; where the fit passes the top or lowest dose, that dose stands as a limit. AUC is the area under the same curve over the 256-fold range up to the top dose, as a fraction; values near 1 show little effect. For some of these results: An inferred top dose comes from the curve model; the source does not state it. For some of these results: Drugs with an entry number were screened twice under separate entries, and the two screens often disagree.
